# Results: PubChem BioAssay (NCATS)
# The inconclusive results got no clear call from the source; some entries with a clear call stand among them for comparison. Potencies beside an inconclusive call are fits to weak or partial responses and may not hold up. Calls of active or inactive are those of the source. Calls follow the shape of the dose curve; as a rule, active = well fitted curve in the direction sought with a large enough effect; inconclusive = small, poorly fitted or top-dose-only effect, or another doubt; inactive = no such curve, though single readings can be large; an effect the other way counts as inactive or inconclusive.
# Key:
# [1] = qHTS of pediatric cancer cell lines to identify multiple opportunities for drug repurposing: Primary screen for DAOY cells (AID 1347090); settings: DAOY medulloblastoma viability, CellTiter-Glo luminescence, 48 h; activity change, negative = cytotoxic: at 46 µM (top of the series) unless noted; also: nearly all actives have a fitted effect of over 55% in size
# Outline: (§1)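 Eight- or eleven-point concentration series, 48 h treatment at 37 degrees C in growth media; readout CellTiter-Glo luminescence. Potency and efficacy were taken from the concentration-response curves.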
# [2] = qHTS of pediatric cancer cell lines to identify multiple opportunities for drug repurposing: Primary screen for SJ-GBM2 cells (AID 1347091)
# Outline: as §1
# [3] = qHTS of pediatric cancer cell lines to identify multiple opportunities for drug repurposing: Primary screen for BT-37 cells (AID 1347094)
# Outline: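 Phenotypic viability qHTS, 48 h compound exposure, CellTiter-Glo luminescence read-out; multi-concentration dosing so that potency and efficacy derive directly from the primary screen's curves.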
# [4] = qHTS of pediatric cancer cell lines to identify multiple opportunities for drug repurposing: Primary screen for SK-N-MC cells (AID 1347093); settings: SK-N-MC viability, CellTiter-Glo luminescence, 48 h; activity change, negative = cytotoxic: at 46 µM (top of the series)
# Outline: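 Metabolically active cells were quantified by ATP-dependent luminescence (CellTiter-Glo, 15 min at room temperature) following 48 h treatment. Cells had been plated at 500-1,000 per well and settled for 5 h beforehand.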
# [5] = qHTS of pediatric cancer cell lines to identify multiple opportunities for drug repurposing: Primary screen for A673 cells (AID 1347092); settings: A673 Ewing sarcoma viability, CellTiter-Glo ATP luminescence, 48 h; activity change, negative = cytotoxic: at 46 µM (top of the series); also: nearly all actives have a fitted effect of over 45% in size
# Outline: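 Titration-based qHTS on A673 cells: MIPE compounds spanned 11 points (0.78 nM to 46 µM final), NPC compounds 8 points (0.59 nM to 46 µM final). Viability after 48 h was measured by ATP luminescence.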
# Potency is read from the fitted curve at half-maximal effect; tags tell the direction and shape of the fitted curve.
SMILES,Potency [1],Potency [2],Potency [3],Potency [4],Potency [5]
O=C(CCc1ccc(O)cc1)c1c(O)cc(O)cc1O,active: 0.118 µM,"inconclusive: 37.2 µM [cytotoxic, single point]","inconclusive: 0.172 µM [cytotoxic, full curve]",–,–
COCCNCCCn1c(C(=O)CF)c(-c2ccc(C)cc2)c2c(N)ncnc21,"inconclusive: 18.7 µM [cytotoxic, partial curve, poor fit]","inconclusive: 18.7 µM [cytotoxic, partial curve]",–,"inconclusive: 13.2 µM [cytotoxic, partial curve]",–
Cn1c(=O)c(F)c(Nc2ccc(I)cc2F)c2c(=O)n(C[C@@H](O)CO)cnc21,active: 18.7 µM,inactive,"inconclusive: 0.769 µM [cytotoxic, partial curve, poor fit]","inconclusive: 1.18 µM [cytotoxic, full curve, poor fit]",–
O=c1oc2c(O)c(O)cc3c(=O)oc4c(O)c(O)cc1c4c23,"inconclusive: 14.6 µM [cytotoxic, single point]","inconclusive: 16.6 µM [cytotoxic, partial curve]",–,"inconclusive: 23.5 µM [cytotoxic, single point]","inconclusive: 37.2 µM [cytotoxic, single point]"
C[C@]12CCC3c4ccc(O)cc4CCC3C1CCC2=O (stereo partly specified),"inconclusive: 18.7 µM [cytotoxic, partial curve, poor fit]","inconclusive: 11.8 µM [cytotoxic, full curve, poor fit]",–,inactive,"inconclusive: 5.9 µM [cytotoxic, partial curve]"
NS(=O)(=O)c1cc2c(cc1Cl)NCNS2(=O)=O,"inconclusive: 37.2 µM [cytotoxic, single point]",inactive,inactive,inactive,"inconclusive: 37.2 µM [cytotoxic, single point]"
NC(=O)[C@@H](CCC(F)(F)F)N(Cc1ccc(-c2ncon2)cc1F)S(=O)(=O)c1ccc(Cl)cc1,"inconclusive: 23.5 µM [cytotoxic, partial curve]","inconclusive: 18.7 µM [cytotoxic, partial curve]","inconclusive: 15.3 µM [cytotoxic, partial curve]",–,–
CN(C)Cc1ccc(-c2nc3cccc4c3n2CCNC4=O)cc1,"inconclusive: 23.5 µM [cytotoxic, partial curve, poor fit]","inconclusive: 23.5 µM [cytotoxic, single point]","inconclusive: 34.3 µM [cytotoxic, single point]",active: 11.8 µM,–
O=C1NC(=O)C(=Cc2cccc(C(F)(F)F)c2)S1,"inconclusive: 23.5 µM [cytotoxic, single point]","inconclusive: 18.7 µM [cytotoxic, partial curve]",–,"inconclusive: 23.5 µM [cytotoxic, partial curve, poor fit]","inconclusive: 23.5 µM [cytotoxic, single point]"
CN(C[C@@H]1COCCO1)S(=O)(=O)Nc1ccc2ccc3ncc(-c4cnn(C)c4)cc3c(=O)c2c1,"inconclusive: 2.96 µM [cytotoxic, partial curve, poor fit]",active: 0.372 µM,"inconclusive: 6.85 µM [cytotoxic, partial curve]",–,–
OC(CN1CCN(c2cccc(Cl)c2)CC1)C(c1ccccc1)c1ccccc1 (stereo unspecified),"inconclusive: 37.2 µM [cytotoxic, single point]","inconclusive: 37.2 µM [cytotoxic, single point]","inconclusive: 43.2 µM [cytotoxic, single point]",active: 10.5 µM,–
O=C1N(c2ccccc2)c2ccccc2C1(Cc1ccncc1)Cc1ccncc1,inactive,–,–,–,"inconclusive: 9.35 µM [cytotoxic, partial curve]"
O=C(O)C(O)Cc1ccc(O)c(O)c1 (stereo unspecified),inactive,–,–,–,"inconclusive: 29.6 µM [cytotoxic, single point]"
Cc1ccccc1-n1c(Cn2nc(-c3cccc(O)c3)c3c(N)ncnc32)nc2cccc(C)c2c1=O,active: 1.18 µM,active: 0.0166 µM,active: 0.0544 µM,–,–
CCOC(=O)N[C@@H]1CC[C@@H]2[C@@H](C1)C[C@H]1C(=O)O[C@H](C)[C@H]1[C@@H]2C=Cc1ccc(-c2cccc(F)c2)cn1,"inconclusive: 11.8 µM [cytotoxic, partial curve, poor fit]","inconclusive: 18.7 µM [cytotoxic, partial curve]","inconclusive: 24.3 µM [cytotoxic, partial curve]",–,–
